Experimental data: PubChem BioAssay AID504832 (National Center for Advancing Translational Sciences (NCATS), 2011)
In all, about 310,000 compounds went through this assay and about 18,000 (5.8%) were called active. The shares of active, inactive and inconclusive entries below differ from those in the screen. Calls follow the shape of the dose curve; as a rule, active = well fitted inhibition curve with a large enough effect; inconclusive = small, poorly fitted or top-dose-only effect, or another doubt; inactive = no such curve, though single readings can be large or run the other way. No potency is given beside an inconclusive call; the fits are too rough.

Test: Primary qHTS for delayed death inhibitors of the malarial parasite plastid, 48 hour incubation
Settings: P. falciparum luciferase growth in erythrocytes; series mostly up to 28.7 µM
Procedure, shortened: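 First compound was added to culture medium, then infected red cells at 0.1% parasitemia and 2% hematocrit (final). After incubation at 37 C under 5% CO2, luciferase detection reagent was dispensed and light output recorded.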
Potency is read from the fitted curve at half-maximal effect; tags tell the direction and shape of the fitted curve.

Compound	Potency
CCNC(=O)N1CCCC(C(=O)c2ccc3cc(OC)ccc3c2)C1 (stereo not drawn)	inconclusive [inhibitor, single point]
Cc1nn(-c2ccccc2)c(C)c1NC(=O)COC(=O)C1CC(=O)N(CCc2ccccc2)C1 (stereo not drawn)	inconclusive [inhibitor, single point]
C[N+]1(C)CCC(=C2c3ccccc3CC(=O)c3sccc32)CC1	inconclusive [inhibitor, partial curve, poor fit]
Cc1cc(Cn2nnc(-c3ccc(Br)cc3)n2)cc(C)c1O	inconclusive [inhibitor, single point]
O=C(CNC(=O)c1ccccc1F)NCCOc1ccccc1Cl	inactive
CSc1oc(-c2ccccc2)nc1S(=O)(=O)c1ccc(C)cc1	inconclusive [inhibitor, full curve, poor fit]
CCN(CC)S(=O)(=O)c1ccc(/C(O)=C(\C#N)c2nc3ccccc3n2C)cc1	inconclusive [inhibitor, single point]
CCN(c1ccccc1)S(=O)(=O)c1ccc(NC(=S)NC(=O)c2ccc(Br)o2)cc1	inconclusive [inhibitor, partial curve]
Cc1nn(-c2ccccc2)c2c1C(O)n1c(nc3ccccc31)S2 (stereo not drawn)	active: 1.65 µM
CCOc1ccccc1NC(=O)c1cc(CC(C)C)oc1C	active: 10.4 µM
COc1cc(NC(=O)c2cccc(Cl)c2)c(OC)cc1NC(=O)CN1CCOCC1	inconclusive [inhibitor, partial curve, poor fit]
Cc1cc2ncc(-c3ccc(Cl)cc3)c(N)n2n1	inactive
Cc1c(-n2c(SCC(=O)NC(C)C)nc3ccccc3c2=O)c(=O)n(-c2ccccc2)n1C	inconclusive [inhibitor, single point]
CC1CCN(S(=O)(=O)c2ccc3c(c2)N(CC(=O)NCCCN2CCCC(C)C2)C(=O)CO3)CC1 (stereo not drawn)	inactive
CC(C)N1C(=O)NC(=O)C2(Cc3cc([N+](=O)[O-])ccc3N(C)C2c2ccccc2)C1=O (stereo not drawn)	inconclusive [inhibitor, single point]
O=c1[nH]c(C2CCCN(S(=O)(=O)c3ccccc3)C2)nc2c1nnn2Cc1ccc2c(c1)OCCO2 (stereo not drawn)	inconclusive [inhibitor, single point]
S=C(Nc1ccccc1)N1CCC(Cc2ccccc2)CC1	inconclusive [inhibitor, full curve]
COc1ccc(/C=N/NC(=O)c2ccn[nH]2)cc1COc1ccc(Cl)cc1	inconclusive [inhibitor, partial curve, poor fit]
COC(=O)C1=C(C)N(C2CCCCC2)C(=O)/C1=C\c1cccs1	inactive
O=C(Nc1nnc(SCc2ccc(Cl)cc2)s1)C1CC(=O)N(Cc2ccccc2)C1 (stereo not drawn)	inactive
CCCNc1nc2nc3ccccn3c(=O)c2cc1C(=O)NCCN1CCOCC1	active: 14.7 µM
Cc1cc(S(=O)(=O)N2CCN(c3ncccn3)CC2)ccc1-n1cnnn1	inconclusive [inhibitor, partial curve]
C=CCOc1ccccc1C1C2=C(CC(C)(C)CC2=O)Nc2c1c(=O)n(C)c(=O)n2C (stereo not drawn)	inconclusive [inhibitor, single point]

Compound	Potency
c1ccc(C(c2ccccc2)c2ccn[nH]2)cc1	inactive
COc1ccc(S(=O)(=O)N2CCC(NC(=O)Nc3ccc(C)cc3)CC2)cc1	inconclusive [inhibitor, partial curve, poor fit]
Cc1ccc(-n2ncc3c2CC(C)(C)CC3NC(=O)Cc2c(C)noc2C)cc1 (stereo not drawn)	inconclusive [inhibitor, partial curve, poor fit]
C=CCc1cc(C(=O)N2CCCCC2)ccc1O	inconclusive [inhibitor, single point]
COc1ccc(C(CNC(=O)c2cccc(NS(=O)(=O)c3ccc(C)c(F)c3)c2)N(C)C)cc1 (stereo not drawn)	inconclusive [inhibitor, single point]
C/C(=N\NC(=S)NCc1ccccc1)C1CCCCC1	inconclusive [inhibitor, partial curve, poor fit]
Cc1cc(NC(=O)Cn2c(=O)c3c(ncn3CCC(C)C)n(Cc3ccccc3)c2=O)no1	active: 3.29 µM
O=C(Nc1cccc(-c2nn[nH]n2)c1)c1ccc(Br)s1	inactive
CN(C)S(=O)(=O)N1CCN(CC(=O)Nc2ccc(Br)cc2)CC1	inactive
COc1cccc(C2=NOC(C(=O)NCc3ccco3)C2)c1 (stereo not drawn)	inactive
COCCCn1c(SCC(=O)NCc2ccco2)nc2sc3c(c2c1=O)CCC3	inconclusive [inhibitor, partial curve, poor fit]
CCC1Nc2ncnc(N3CCN(c4ccccn4)CC3)c2N(Cc2ccc(Cl)cc2)C1=O (stereo not drawn)	inconclusive [inhibitor, single point]
COC(=O)C1=C(c2ccc(F)cc2F)C[C@@H]2CC[C@H]1N2C(=O)N1CCC(O)(c2ccc(Cl)cc2)CC1	active: 9.28 µM
NC(=O)N/N=C/c1cn(-c2ccccc2)nc1-c1cccs1	inconclusive [inhibitor, partial curve, poor fit]
CCN(CC)c1ccc(/C=N/O)cc1	inactive
C=C(C)CN1CCN(S(=O)(=O)c2ccc(C)c(N(C)S(=O)(=O)c3ccc(C)cc3)c2C)CC1	active: 10.4 µM
Cc1ccc(C(=O)N2CCCC(Nc3ccc(F)cc3)C2)cc1C (stereo not drawn)	inconclusive [inhibitor, single point]
COc1cc(OC)cc(C(=O)OCC(=O)NCCCc2ccccc2)c1	inactive
CCN(CC)CC(=O)c1c(N)n(Cc2ccccc2)c(=O)n(C)c1=O	inactive
NNC(=O)c1cc2c(s1)CCCCCC2	inconclusive [inhibitor, single point]
CC1CC(=O)Nc2ccccc2N1S(=O)(=O)c1ccc(F)cc1F (stereo not drawn)	active: 2.33 µM
CCN(CC)CC(O)Cn1c2ccccc2c2ccccc21 (stereo not drawn)	inconclusive [inhibitor, single point]
NC(=S)NN=C1c2cc(S(=O)(=O)N3CCOCC3)ccc2-c2ccc(S(=O)(=O)N3CCOCC3)cc21	inconclusive [inhibitor, partial curve]

Compound	Potency
O=C1CSC(c2ccccn2)N1c1ccc(C(F)(F)F)cc1 (stereo not drawn)	active: 2.94 µM
CN(c1cccc(Cl)c1)S(=O)(=O)c1cccc(C(=O)Nc2ccc3c(c2)CCC3)c1	inconclusive [inhibitor, single point]
CC(C)(C)c1cc(P(=O)(c2ccccc2)c2ccccc2)ccc1O	inconclusive [inhibitor, full curve, poor fit]
O=C(Cn1nnc(-c2ccccc2F)n1)Nc1ccc(S(=O)(=O)NC2CCCC2)cc1	inconclusive [inhibitor, single point]
COc1ccc(-c2oc3ncn(Cc4ccco4)c(=N)c3c2-c2ccc(OC)cc2)cc1	inconclusive [inhibitor, partial curve, poor fit]
Cc1ccc(CNC(=O)CS(=O)(=O)Cc2nc(-c3ccc(C)cc3)oc2C)cc1	inactive
COc1ccccc1N1CCN(C(=O)c2cc(-c3cccs3)on2)CC1	inactive
CCN1CCN(C(=O)C2CCN(S(=O)(=O)c3ccc4c(c3)NC(=O)C(C)S4)CC2)CC1 (stereo not drawn)	inconclusive [inhibitor, single point]
COc1ccc(C)cc1NC(=O)CSc1nnc(-c2cc(C)[nH]n2)n1N	inactive
CC1CCCC(NC(=O)CN2CCN(S(=O)(=O)c3cccs3)CC2)C1C (stereo not drawn)	inconclusive [inhibitor, single point]
CCCC1Cc2c(sc(NC(=S)NC(=O)c3ccccc3)c2C#N)CO1 (stereo not drawn)	inactive
O=C(COC(=O)C1CCN(S(=O)(=O)c2ccccc2)CC1)NC(=O)c1ccc(OC(F)F)cc1	inactive
O=C(CCSc1ccccc1)NCC1CCCO1 (stereo not drawn)	inactive
Cc1[nH]c(=O)c(C#N)c(C)c1Cc1ccc(Cl)cc1Cl	inconclusive [inhibitor, partial curve, poor fit]
COc1ccc(-c2oc3ccc(-c4cc(OC)c(OC)c(OC)c4)cc3c2-c2ccc(OC)nc2)cc1	inconclusive [inhibitor, full curve, poor fit]
COc1ccc(CN(C)CC2CCCN(CCc3ccccc3C)C2)cc1O (stereo not drawn)	active: 5.86 µM
Cc1sc(NC(=O)CN2CCCC2)nc1-c1ccc2c(c1)CCN2C(=O)c1ccc(F)cc1	inconclusive [inhibitor, single point]
O=C(Nc1cc(SCCO)cc([N+](=O)[O-])c1)c1ccc(Br)o1	inconclusive [inhibitor, single point]
CCOc1ccc(-n2c(SCC(=O)c3c(N)n(C)c(=O)n(C)c3=O)nnc2-c2cccnc2)cc1	inconclusive [inhibitor, partial curve, poor fit]
Cc1cc(C)nc(SCC(=O)NN=C2CCCC2)n1	inactive
Nc1nc(-c2ccccn2)nc(N)c1Cc1ccccc1F	inconclusive [inhibitor, partial curve, poor fit]
COc1cc(OC)cc(C(=O)NC(C(=O)N2CCc3ccccc3C2)C(C)C)c1 (stereo not drawn)	inconclusive [inhibitor, partial curve, poor fit]
